Assays:
[1] = biological target: T1, soluble His-tagged human L1CAM (extracellular portion, amino acids 20 to 1120) (human, UniProt P32004 20-1120); assay: SPR essentially as in Example 4, conjugate captured, His-tagged human L1CAM as analyte
T1 construct: range 20-1120; Expressed in HEK cells with an N-terminal leader peptide for secretion (not part of the assayed protein)

[2] = biological target: T2, human L1CAM on the surface of human cancer cell lines (human, UniProt P32004 20-1257); assay: cell-based or functional assay
[3] = biological target: T2, human L1CAM on the surface of human …; assay: cell-based or functional assay; remark: listed apart in the source

B1: AFF4-WT-VC-MMAE (antibody, human IgG1, kappa)
heavy: QVQLQESGPGLVKPSQTLSLTCTVTGYSITSDYTWNWIRQFPGKGLEWMGYISYSGSYSYNPSLKSRVTISRDTSKNQFSLKLSSVTAADTAVYYCARSFSYSYGFAYWGQGTLVTVSSASTKGPSVFPLAPSSKSTSGGTAALGCLVKDYFPEPVTVSWNSGALTSGVHTFPAVLQSSGLYSLSSVVTVPSSSLGTQTYICNVNHKPSNTKVDKRV[here human IgG1 Fc without letters]
light: DIQMTQSPSSLSASVGDRVTITCKASQDVSSAVAWYQQKPGKAPKLLIYSASYRYTGVPSRFSGSGSGTDFTFTISSLQPEDFATYYCQQHYSTPWTFGGGTKVEIKRTVAAPSVFIFPPSDEQLKSGTASVVCLLNNFYPREAKVQWKVDNALQSGNSQESVTEQDSKDSTYSLSSTLTLSKADYEKHKVYACEVTHQGLSSPVTKSFNRGEC
modifications: MC-VC-PABC-MMAE on thiols of partially reduced cysteines; drug to antibody ratio 3.8; chain and positions not stated
notes: also called AFF4-WT conjugated to VC-MMAE (MC-VC-PABC-MMAE, vedotin); AFF-WT-VC-MMAE
In the case of B1, the Kd [1] is reported as 0.14 nM, the “cytotoxicity IC50 on JIMT-1 cells (6 days, ATP quantification)” value (from here on “cytotoxicity IC50 on JIMT-1 cells”) [2] is reported as 0.041 nM and the “cytotoxicity IC50 on MeWo cells (6 days, ATP quantification)” value (from here on “cytotoxicity IC50 on MeWo cells”) [2] is reported as 0.245 nM. For the same binder, the “cytotoxicity IC50 on OVCAR-3 cells (6 days, ATP quantification)” value (“cytotoxicity IC50 on OVCAR-3 cells” below) [2] was 0.025 nM, the “cytotoxic potency (IC50, mean) on Caov-3 ovarian cancer cells (L1CAM 83′653 molecules/cell)” value [3] was 0.275 nM and the “cytotoxic potency (IC50, mean) on EFO-27 ovarian cancer cells (L1CAM 51′850 molecules/cell)” value [3] was 0.382 nM. For the same binder, the “cytotoxic potency (IC50, mean) on FU-OV-1 ovarian cancer cells (L1CAM 168′071 molecules/cell)” value [3] was 0.141 nM, the “cytotoxic potency (IC50, mean) on HEC-1A endometrial cancer cells (L1CAM 12 molecules/cell)” value [3] was 36.9 nM and the “cytotoxic potency (IC50, mean) on HEC-1B endometrial cancer cells (L1CAM 59′450 molecules/cell)” value [3] was 0.068 nM. The “cytotoxic potency (IC50, mean) on HEC-108 endometrial cancer cells (L1CAM 68′342 molecules/cell)” value [3] was 0.456 nM, the “cytotoxic potency (IC50, mean) on HEC-251 endometrial cancer cells (L1CAM 78′216 molecules/cell)” value [3] was 0.055 nM and the “cytotoxic potency (IC50, mean) on HHUA endometrial cancer cells (L1CAM 51′267 molecules/cell)” value [3] was 0.028 nM. For the same binder, the “cytotoxic potency (IC50, mean) on IMR32 neuroblastoma cells (L1CAM 12′467 molecules/cell)” value [3] was 0.428 nM, the “cytotoxic potency (IC50, mean) on JHOS-2 ovarian cancer cells (L1CAM 117′667 molecules/cell)” value [3] was 0.175 nM and the “cytotoxic potency (IC50, mean) on JHOS-4 ovarian cancer cells (L1CAM 1′500 molecules/cell)” value [3] was 10.1 nM. For the same binder, the “cytotoxic potency (IC50, mean) on JHUEM-1 endometrial cancer cells (L1CAM 347 molecules/cell)” value [3] was 21.6 nM, the “cytotoxic potency (IC50, mean) on JIMT-1 breast cancer cells (L1CAM 94′673 molecules/cell)” value [3] was 0.034 nM and the “cytotoxic potency (IC50, mean) on MDA-MB-468 breast cancer cells (L1CAM 469 molecules/cell)” value [3] was 91.6 nM. The “cytotoxic potency (IC50, mean) on MFE-280 endometrial cancer cells (L1CAM 26′941 molecules/cell)” value [3] was 38.9 nM, the “cytotoxic potency (IC50, mean) on MeWo melanoma cells (L1CAM 38′150 molecules/cell)” value [3] was 0.962 nM and the “cytotoxic potency (IC50, mean) on OVCAR-3 ovarian cancer cells (L1CAM 85′571 molecules/cell)” value [3] was 0.033 nM. For the same binder, the “cytotoxic potency (IC50, mean) on OVKATE ovarian cancer cells (L1CAM 26′337 molecules/cell)” value [3] was 0.382 nM, the “cytotoxic potency (IC50, mean) on OVSAHO ovarian cancer cells (L1CAM 66′750 molecules/cell)” value [3] was 0.069 nM and the “cytotoxic potency (IC50, mean) on SK-BR-3 breast cancer cells (L1CAM 9′029 molecules/cell)” value [3] was 1.69 nM. The “cytotoxic potency (IC50, mean) on SKOV-6 ovarian cancer cells (L1CAM 22′465 molecules/cell)” value [3] was 15.1 nM and the “cytotoxic potency (IC50, mean) on SNGM endometrial cancer cells (L1CAM 15′179 molecules/cell)” value [3] was 1.91 nM.

B2: AFF4-WT-VA-SG3199 (antibody, human IgG1, kappa)
heavy: QVQLQESGPGLVKPSQTLSLTCTVTGYSITSDYTWNWIRQFPGKGLEWMGYISYSGSYSYNPSLKSRVTISRDTSKNQFSLKLSSVTAADTAVYYCARSFSYSYGFAYWGQGTLVTVSSASTKGPSVFPLAPSSKSTSGGTAALGCLVKDYFPEPVTVSWNSGALTSGVHTFPAVLQSSGLYSLSSVVTVPSSSLGTQTYICNVNHKPSNTKVDKRV[here human IgG1 Fc without letters]
light: DIQMTQSPSSLSASVGDRVTITCKASQDVSSAVAWYQQKPGKAPKLLIYSASYRYTGVPSRFSGSGSGTDFTFTISSLQPEDFATYYCQQHYSTPWTFGGGTKVEIKRTVAAPSVFIFPPSDEQLKSGTASVVCLLNNFYPREAKVQWKVDNALQSGNSQESVTEQDSKDSTYSLSSTLTLSKADYEKHKVYACEVTHQGLSSPVTKSFNRGEC
modifications: MP-PEG8-VA-PABC-SG3199 on thiols of partially reduced cysteines; drug to antibody ratio 1.8; chain and positions not stated
notes: also called AFF4-WT conjugated to VA-SG3199 (MP-PEG8-VA-PABC-SG3199, tesirine)
B2 was tested, and the Kd [1] was 0.14 nM, the “cytotoxicity IC50 on JIMT-1 cells” value [2] was 0.008 nM and the “cytotoxicity IC50 on MeWo cells” value [2] was 0.006 nM. The “cytotoxicity IC50 on OVCAR-3 cells” value [2] was 0.002 nM.

B3: AFF4-WT-Gluc-MMAE (antibody, human IgG1, kappa)
heavy: QVQLQESGPGLVKPSQTLSLTCTVTGYSITSDYTWNWIRQFPGKGLEWMGYISYSGSYSYNPSLKSRVTISRDTSKNQFSLKLSSVTAADTAVYYCARSFSYSYGFAYWGQGTLVTVSSASTKGPSVFPLAPSSKSTSGGTAALGCLVKDYFPEPVTVSWNSGALTSGVHTFPAVLQSSGLYSLSSVVTVPSSSLGTQTYICNVNHKPSNTKVDKRV[here human IgG1 Fc without letters]
light: DIQMTQSPSSLSASVGDRVTITCKASQDVSSAVAWYQQKPGKAPKLLIYSASYRYTGVPSRFSGSGSGTDFTFTISSLQPEDFATYYCQQHYSTPWTFGGGTKVEIKRTVAAPSVFIFPPSDEQLKSGTASVVCLLNNFYPREAKVQWKVDNALQSGNSQESVTEQDSKDSTYSLSSTLTLSKADYEKHKVYACEVTHQGLSSPVTKSFNRGEC
modifications: MC-betaglucuronide-MMAE on thiols of partially reduced cysteines; drug to antibody ratio 3.9; chain and positions not stated
notes: also called AFF4-WT conjugated to Gluc-MMAE (MC-betaglucuronide-MMAE)
B3 was tested, and the Kd [1] was 0.14 nM, the “cytotoxicity IC50 on JIMT-1 cells” value [2] was 0.013 nM and the “cytotoxicity IC50 on MeWo cells” value [2] was 0.021 nM. The “cytotoxicity IC50 on OVCAR-3 cells” value [2] was 0.01 nM.

B4: AFF4-WT-sulfo-SPDB-DM4 (antibody, human IgG1, kappa)
heavy: QVQLQESGPGLVKPSQTLSLTCTVTGYSITSDYTWNWIRQFPGKGLEWMGYISYSGSYSYNPSLKSRVTISRDTSKNQFSLKLSSVTAADTAVYYCARSFSYSYGFAYWGQGTLVTVSSASTKGPSVFPLAPSSKSTSGGTAALGCLVKDYFPEPVTVSWNSGALTSGVHTFPAVLQSSGLYSLSSVVTVPSSSLGTQTYICNVNHKPSNTKVDKRV[here human IgG1 Fc without letters]
light: DIQMTQSPSSLSASVGDRVTITCKASQDVSSAVAWYQQKPGKAPKLLIYSASYRYTGVPSRFSGSGSGTDFTFTISSLQPEDFATYYCQQHYSTPWTFGGGTKVEIKRTVAAPSVFIFPPSDEQLKSGTASVVCLLNNFYPREAKVQWKVDNALQSGNSQESVTEQDSKDSTYSLSSTLTLSKADYEKHKVYACEVTHQGLSSPVTKSFNRGEC
modifications: sulfo-SPDB-DM4 on lysines (lysine conjugate); drug to antibody ratio 3.7; chain and positions not stated
notes: also called AFF4-WT conjugated to sulfo-SPDB-DM4
In the case of B4, the Kd [1] is reported as 0.16 nM, the “cytotoxicity IC50 on JIMT-1 cells” value [2] is reported as 0.568 nM and the “cytotoxicity IC50 on MeWo cells” value [2] is reported as 0.88 nM. The “cytotoxicity IC50 on OVCAR-3 cells” value [2] was 0.899 nM.

— patent US20260234245A1 (ELTHERA, published 2026)
